What was measured:
[1] = tested on: KDR (VEGFR-2), KDR (VEGFR-2)(1-3), KDR (VEGFR-2)(3); assay: Binding epitope mapping with KDR Ig-domain deletion variants; set-up: species or system human
Procedure: (§1) The production of KDR (VEGFR-2) extracellular Ig-like domain deletion variants has been previously described (Lu et al. (2000)). In an epitope-mapping assay, full length KDR (VEGFR-2)-AP, Ap fusions of two KDR (VEGFR-2) Ig-domain deletion variants, and Flk-1-AP were first immobilized onto a 96-well plate (Nunc) using a rabbit anti-AP antibody (DAKO-immunoglobulins, Glostrup, Denmark) as the capture reagent. The plate was then incubated with various anti-KDR (VEGFR-2) Fab proteins at RT for 1 h, followed by incubation with a rabbit anti-human Fab antibody-HRP conjugate. The plate was washed and developed as described above.

[2] = target: T1, Flk-1 (Mus musculus, UniProt P35918); assay: Cross-reactivity with Flk-1-AP in epitope-mapping assay; assay type: binding
T1 construct: The soluble fusion proteins, KDR (VEGFR-2)-AP, its immunoglobulin (Ig) domain-deletion variants, and Flk-1-AP, were expressed in stably transfected NIH 3T3; made in house; host or cells: stably transfected NIH 3T3 cells; purified from culture supernatant on immobilized anti-AP antibody
Procedure: as §1

[3] = target: KDR (VEGFR-2) (Homo sapiens, UniProt P35968); assay: BIAcore analysis of soluble Fab; assay type: binding; set-up: the cDNA for KDR (VEGFR-2) extracellular domain is fused in-frame with the cDNA for human placental AP; made in house; host or cells: stably transfected NIH 3T3 cells, purified from supernatant on anti-AP antibody; conditions: mean±SE
Procedure: The binding kinetics of soluble Fab proteins to KDR (VEGFR-2) were measured by surface plasmon resonance using a BIAcore biosensor (Pharmacia Biosensor). KDR (VEGFR-2)-AP fusion protein was immobilized onto a sensor chip and soluble Fab proteins were injected at concentrations ranging from 1.5 nM to 100 nM. Sensorgrams were obtained at each concentration and were evaluated using a program, BIA Evaluation 2.0, to determine the rate constants kon and koff Kd was calculated from the ratio of rate constants koff/kon.

KDR (VEGFR-2), sequence (P35968 20-764 limits assumed): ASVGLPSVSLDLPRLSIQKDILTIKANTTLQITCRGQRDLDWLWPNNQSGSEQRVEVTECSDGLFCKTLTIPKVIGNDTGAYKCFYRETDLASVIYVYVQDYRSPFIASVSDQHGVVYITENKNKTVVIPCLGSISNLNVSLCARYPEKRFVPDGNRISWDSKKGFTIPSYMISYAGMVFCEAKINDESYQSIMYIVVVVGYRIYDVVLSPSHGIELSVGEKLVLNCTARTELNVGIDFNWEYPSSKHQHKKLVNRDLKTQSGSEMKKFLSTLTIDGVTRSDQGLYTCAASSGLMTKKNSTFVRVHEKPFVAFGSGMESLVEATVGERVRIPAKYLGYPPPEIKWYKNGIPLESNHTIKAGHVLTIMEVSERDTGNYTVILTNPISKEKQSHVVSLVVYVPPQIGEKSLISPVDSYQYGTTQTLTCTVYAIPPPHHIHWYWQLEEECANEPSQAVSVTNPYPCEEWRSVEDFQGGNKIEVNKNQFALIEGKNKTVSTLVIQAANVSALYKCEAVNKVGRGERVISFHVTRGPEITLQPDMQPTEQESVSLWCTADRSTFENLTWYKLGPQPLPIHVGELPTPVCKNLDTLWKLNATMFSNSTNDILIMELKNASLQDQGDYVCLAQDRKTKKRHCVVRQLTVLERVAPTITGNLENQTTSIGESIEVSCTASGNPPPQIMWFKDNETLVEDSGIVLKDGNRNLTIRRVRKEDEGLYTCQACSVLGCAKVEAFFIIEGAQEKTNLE
T1 sequence (P35918 20-762 limits assumed): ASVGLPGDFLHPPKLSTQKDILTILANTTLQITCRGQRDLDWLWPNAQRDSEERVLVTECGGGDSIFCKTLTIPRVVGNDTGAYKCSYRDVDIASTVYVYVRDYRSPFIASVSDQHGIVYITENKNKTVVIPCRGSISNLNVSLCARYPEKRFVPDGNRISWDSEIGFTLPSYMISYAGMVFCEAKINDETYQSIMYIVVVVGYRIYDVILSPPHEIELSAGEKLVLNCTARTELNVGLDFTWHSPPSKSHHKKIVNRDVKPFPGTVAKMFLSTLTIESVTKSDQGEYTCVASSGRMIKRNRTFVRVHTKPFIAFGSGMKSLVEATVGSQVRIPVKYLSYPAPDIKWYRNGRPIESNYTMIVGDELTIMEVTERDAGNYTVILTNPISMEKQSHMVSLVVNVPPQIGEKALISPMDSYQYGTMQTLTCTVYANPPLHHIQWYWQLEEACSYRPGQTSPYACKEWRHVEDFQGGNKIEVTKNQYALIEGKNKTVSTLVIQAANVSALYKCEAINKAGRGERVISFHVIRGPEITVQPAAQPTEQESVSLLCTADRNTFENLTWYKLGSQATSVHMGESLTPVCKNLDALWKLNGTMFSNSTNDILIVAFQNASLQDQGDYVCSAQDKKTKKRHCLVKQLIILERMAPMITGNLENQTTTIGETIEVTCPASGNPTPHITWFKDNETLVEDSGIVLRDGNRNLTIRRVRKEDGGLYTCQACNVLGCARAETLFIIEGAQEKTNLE

cross-reactivity with Flk-1 [2]: cross-reacts with Flk-1
koff [3]: 18.7 ± 2.12 10^−4 S^−1
kon [3]: 4.14 ± 1.21 10^4 M^−1S^−1
B1: D1F7: human anti-KDR (VEGFR-2) VEGF-blocking Fab clone, cross-reactive with Flk-1 (antibody, V domains shown)
VH: EVQLVQSGAEVKKPGASVKVSCKASGGTFSSYAISWVRQAPGQGLEWMGGIIPIFGTANYAQKFQGRVTFTADKSTSTAYMELRSLRSDDTAVYYCARGYDYYDSSGVASPFDYWGQGTLVTVSS
VL: QSVLTQPPSASGTPGQRVTISCSGSTSNIGTNTANWFQQLPGTAPKLLIHNNNQRPSGVPDRFSGSKSGTSASLAISGLQSEDEADYYCAAWDDSLNGHWVFGGGTKLTVL
location of binding epitope(s) [1]: broader binding epitope(s) within KDR (VEGFR-2) Ig domains 1 to 3
